Test results from PubChem BioAssay AID1508624 (National Center for Advancing Translational Sciences (NCATS), 2021).
Screen size: about 48,000 compounds; about 120 (0.25%) were called active. Inconclusive results (about 4%) are left out. The call rests on the fitted dose curve; in most records, active means well fitted activation curve with a large enough effect; inconclusive means small, poorly fitted or top-dose-only effect, or another doubt; inactive means no such curve, though single readings can be large or run the other way. The list shows a part of the results.

Assay: Primary qHTS for Identification of Small Molecule Activators of Huntingtin-Antisense Promoter Activity; further: nearly all actives have a fitted effect of over 55% in size
Settings: HEK293 HTT-AS promoter firefly luciferase reporter, 24 h; series mostly up to 57.5 µM; activity change, positive = activation: at the top concentration
In short: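 Firefly luciferase readout (Dual-Glo, 10 min RT) after 24 h, 37 °C compound exposure (final up to 57.5 uM) of HEK293 reporter cells cultured 24 h beforehand; PTC124 at 50 uM final as control inhibitor; activity scaled vehicle 0%, zero RLU -100%.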

Activity change, positive = activation, inactive:
Cc1cc(C)cc(NC(=O)Cn2c(=O)n(-c3cc(C)cc(C)c3)c(=O)c3oc4ccccc4c32)c1 -20.8%, Cn1nc(C(=O)NCc2cccc(Cl)c2)c2c1-c1ccccc1S(=O)(=O)C2 -13.7%, Cc1ccccc1N(C)S(=O)(=O)c1nnc(NC(=O)c2ccccc2F)s1 -27.6%, COc1cc(CN2CCc3nc(N4CCN(c5ncccn5)CC4)ncc3C2)cc(OC)c1OC -73.9%, COc1ccc(-n2ccnc2SCC(=O)Nc2nnc(C)s2)cc1 -18.8%, COc1cccc(Cn2c(CNC(=O)CCc3ccccc3)nc3cccnc32)c1 -13.2%, Cc1ccc(NC(=O)C(=O)NCCc2sc(-c3ccc(Cl)cc3)nc2C)cc1C -3.85%, Cc1ccc(S(=O)(=O)NCCc2csc(-c3ccc(Cl)cc3)n2)cc1 -61.5%, Cc1c(Cl)cccc1NC(=O)CCS(=O)(=O)c1ccc2c(c1)oc(=O)n2C -5.86% [at 11.5 µM, percent change from vehicle, -100% = no light], CN(c1ccccc1)S(=O)(=O)c1nnc(NC(=O)C2CCCCC2)s1 -18.1%, COc1cccc(CNC(=O)CCn2nc(C)c3c(C)n(-c4ccccc4)nc3c2=O)c1 8.43%, CCOC(=O)C1CCCN(S(=O)(=O)c2cc3c4c(c2)CC(=O)N4CCC3)C1 (stereo not given) -15%, COc1ccc(C2c3c(oc4ccc(C)cc4c3=O)C(=O)N2CCCN2CCOCC2)cc1OC (stereo not given) 1.44%, COc1ccc(NC(=O)C2=CC(c3ccc4c(c3)OCO4)=NS(=O)(=O)N2C)cc1 -11.9%, CCC(C)(C)NC(=O)C1CCN(S(=O)(=O)c2c(C)noc2/C=C/c2ccc(C)cc2)CC1 -33.5%, COc1ccc(C)cc1NC(=O)C1COc2ccccc2C1 (stereo not given) 22.2%, Fc1ccc(-n2cc(-c3ccccc3)c3c(NCCc4ccccc4)ncnc32)cc1 10.3%, CCc1ccc(NC(=O)Cn2c(=O)n(CCCCC(=O)NCCc3ccccc3)c(=O)c3ccccc32)cc1 -7.98%, COc1ccc(-c2noc(CC(=O)Nc3ccc(Br)cc3C)n2)cc1 -8.07%, COc1ccc(S(=O)(=O)NCC(c2ccc(N(C)C)cc2)N2CCCC2)cc1 (stereo not given) -6.27%, COc1cccc(CNC(=O)c2oc3c(c2C)-c2nn(Cc4cccc(Cl)c4)cc2CC3)c1 -31.8%, CCCCCCOC(=O)NC(=N)c1ccc(NCc2nc3cc(C(=O)N(CCC(=O)OCC)c4ccccn4)ccc3n2C)cc1 -29.7%, Cc1ccc2c(=O)cc(C(=O)Nc3ccc(S(=O)(=O)N(C)Cc4ccccc4)cc3)oc2c1C -8.68%, COc1cccc(C(=O)NCc2cn3ccccc3n2)c1 -8.75%, CN(N=O)C(=O)N[C@@H]1[C@@H](O)[C@H](O)[C@@H](CO)O[C@@H]1O -10.2%, CCOc1ccc(OCC)c(NS(=O)(=O)c2c(C(=O)N3CCCCCC3)c(C)n(C)c2C)c1 -12.4%, CCOc1ccc(C(=O)c2cn(CC(=O)Nc3ccc(F)cc3)c3cc4c(cc3c2=O)OCCO4)cc1 -37.9%, O=C(CSc1nnc(-c2ccccc2)c(-c2ccccc2)n1)NC1CCCC1 -23.8%, O=C(NCCCO)C(=O)NCC(c1ccc2c(c1)OCO2)N1CCOCC1 (stereo not given) -7.98%, CCCCCCCCCCCCCCCCCCCCCCO 3.72%, CCN1C(C(=O)c2ccccc2)=C(OC(=O)c2ccc(OC)cc2)c2ccccc2S1(=O)=O -31.1%, NCCc1cnc[nH]1, Cc1ccc(NC(=O)c2oc3ccc(S(=O)(=O)N4CCCCC4)cc3c2C)cc1Cl 1.97%, CCN(Cc1ccccc1)C(=O)CCc1c(C)nc2c(c(C)nn2-c2ccc(C)c(C)c2)c1C -10.7%, NS(=O)(=O)c1ccc(NC2=CC(=O)c3ccccc3C2=O)cc1 -17.5%, CCc1cccc(C)c1NC(=O)Cn1cc2c(n1)CCCC2 -23.1%, Cn1c(=O)c2c(-c3ccc(Br)cc3)n(CCc3ccccc3)cc2n(C)c1=O -13.2%, Cc1ccc(NC(=O)Nc2nnc(N(C)C3CCCCC3)s2)c(Cl)c1 4.25%, Cc1cc(C)c(/C=C/c2onc(C)c2S(=O)(=O)N2CCC(C(=O)N(C)Cc3ccccc3)CC2)c(C)c1 -5.1%, Cc1ccc(-n2c(=O)c3c4c(sc3n(Cc3ccccc3C)c2=O)CCC4)cc1C -17.3%, CC(=O)NC(Cc1ccccc1)C(=O)O (stereo not given) -11.2%, O=C(Nc1ccc2c(c1)OCO2)c1cc(-c2ccc(Br)cc2)on1 7.75%, Cc1ccccc1C(=O)Nc1nc2nc(-c3ccccc3)cc(=O)n2[nH]1 -0.14%, COc1ccc(O)cc1 -3.13%, Clc1cccc(-n2cc(-c3ccccc3)c3c(N4CCCCC4)ncnc32)c1 -4.18%, CCC1CN(C(=O)C2CCN(S(=O)(=O)c3c(C)noc3/C=C/c3ccccc3F)CC2)c2cc(C)ccc2O1 (stereo not given) 16.5%, COCCN1CCN(Cc2ccc(C(=O)NC(C)C)cc2)C(=O)C1=O 5.65%, CCCCn1c(SCC(=O)NCc2ccc(C)cc2)nc2c(sc3ccccc32)c1=O 9.8%, COc1ccc(CNC(=O)C(C)n2c(=O)cc(C)c3c(C)nn(-c4ccccc4)c32)cc1 (stereo not given) -1.65%, COc1ccc(NC(=O)c2oc3ccccc3c2NC(=O)Cc2cccs2)c(OC)c1 -14.1%, NS(=O)(=O)c1cc2c(cc1Cl)NC(C(Cl)Cl)NS2(=O)=O (stereo not given), Cc1nc2c(c(C)nn2-c2ccccc2)c(C)c1CCC(=O)NCc1ccccc1 -25.1%, CCc1cccc(NC(=O)C2CCN(S(=O)(=O)c3cccc(-c4noc(C)n4)c3)CC2)c1 -38.7%, CCN1CCN(c2cc(C)c3cc(NC(=O)c4ccc(OC)c(OC)c4)ccc3n2)CC1 -0.287%, CCN1CCN(Cc2c(O)ccc3cc(-c4ccc(OC)cc4)c(=O)oc23)CC1 -8.26%, COc1ccc(C2c3cccn3CCN2S(=O)(=O)c2ccc([N+](=O)[O-])cc2)cc1 (stereo not given) -16.1%, COc1ccc(C)cc1Nc1nc(N)c2cc(OC)c(OC)cc2n1 -16%, CC(=O)c1cccc(NC(=O)c2nc(-c3ccccc3)n(-c3ccccc3C)n2)c1 -29.4%, COc1ccc(CN2CCCN(CC(=O)Nc3ccc4c(c3)OCCO4)S2(=O)=O)cc1 -3.04%, CCC(=O)Nc1ccc(O)cc1 -0.177%, COc1ccc(C2CC(=O)N(CC(=O)Nc3cccc(C)c3C)c3ccccc3S2)cc1OC (stereo not given) -37.4%, Cc1ccc(C(=O)N2CCC(C(N)=O)CC2)cc1NC(=O)c1nsc2ccccc12 2.94%, CN1CCN(C2Cc3ccccc3Sc3ccc(Cl)cc32)CC1 (stereo not given) -27.5%, COc1ccccc1CNC(=O)CCCn1c(=O)c2ccccc2n(Cc2ccc(C)cc2)c1=O -7.31%, COc1ccc(N(CC(=O)NCCc2ccc(Cl)cc2)S(=O)(=O)c2c(C)nn(C)c2C)cc1 -25.2%, Cc1ccc(Sc2ccc(N3CCCC(C(=O)Nc4ccc(F)cc4F)C3)nn2)cc1 (stereo not given) -21%, CCOC(=O)C1CCN(C(=O)c2nn(-c3ccc(OC)cc3)c(=O)c3c2c2ccccc2n3C)CC1 -1.95%, Cc1ccc(-c2noc(-c3nnn(CC(=O)Nc4cc(Cl)ccc4C)c3N)n2)cc1 3.61%, Cc1nn(C)c2c1c(C(F)(F)F)cc(=O)n2CC(=O)N1CCC(C)CC1 -14.3%, CC1CCN(S(=O)(=O)c2cc(C(=O)N3CCN(c4ccccc4F)CC3)n(C)c2)CC1 -25.9%, CCc1ccc(C(=O)NC2=NC(c3ccccc3F)CC(=O)N2)cc1 (stereo not given) -2.26%, Cn1cnc(S(=O)(=O)N2CCCC(C(=O)Nc3ccc(OC(F)(F)F)cc3)C2)c1 (stereo not given) -7.58%, CCOC(=O)c1c(NC(=O)c2ccc(C)c(C)c2)sc2c1CCCCC2 -9.61%, CCC(=O)N1CCc2cc(S(=O)(=O)NC(C(=O)Nc3cc(OC)cc(OC)c3)C(C)C)ccc21 (stereo not given) 3.73%, COCCCNC(=O)c1ccc2nc(CCc3ccccc3)oc2c1 30%, CN[C@@H]1[C@H](O)[C@H](NC)[C@H]2O[C@@]3(O)C(=O)C[C@@H](C)O[C@H]3O[C@@H]2[C@H]1O 4.37%, Cc1c(Cl)ccc2sc(N3CCN(C(=O)CS(=O)(=O)c4ccccc4)CC3)nc12 -28%, O=C(Cc1c(C(=O)O)[nH]c2ccccc12)Nc1cccc(C(F)(F)F)c1 -1.13%, CCOc1ccc(OCC)c(NS(=O)(=O)c2ccc3c(c2)CCN3C(=O)C2CCC2)c1 -28%, CCOc1ccc(CNC(=O)Cn2c(=O)c3cccn3c3ccccc32)cc1 -27.1%, O=C(Nc1ccccc1Br)N1CCC(CN2CCCC2)CC1 0%, Cc1nnc(N2CCCC(C(=O)NCCc3ccccc3)C2)c2nn(-c3ccccc3)c(C)c12 (stereo not given) -8.37%, Cc1ccn2cc(-c3ccc(C)c(NS(=O)(=O)c4ccc(Cl)cc4)c3)nc2c1 5.23%, Cc1ccc(S(=O)(=O)c2nc(-c3cccc(Cl)c3)oc2NCc2ccccc2)cc1 -17.6%, Cc1cc(C)c(NC(=O)Cn2c(=O)n(Cc3ccc(C(=O)NCc4ccco4)cc3)c(=O)c3sccc32)c(C)c1 -31.6%, CN(C)CCNC(=O)c1ccc2c(c1)N(Cc1c(F)cccc1Cl)C(=O)c1ccccc1S2 -25.5%, CCOC(=O)Cn1c(=O)oc2cc(S(=O)(=O)N3CCN(c4cc(C)ccc4C)CC3)ccc21 -10.4%, CCC1CN(C(=O)Nc2cc(Cl)ccc2C(=O)OC)c2ccccc2S1 (stereo not given) -11.4%, COc1ccc(OC)c(NC(=O)COCc2cc(-c3ccc(F)cc3)on2)c1 -0.227%, Cc1ccc(C)c(Cn2c(=O)n(CCCC(=O)NCc3ccc4c(c3)OCO4)c(=O)c3sccc32)c1 -35.4%, CCCSc1ncc(Cl)c(C(=O)N2CCN(c3ccc(OC)cc3)CC2)n1 -35.2%, CN(C(=O)c1nn(C)c2c1CS(=O)(=O)c1ccccc1-2)c1cccc(Cl)c1 -8.14%, CCOC(=O)c1ccc(NC(=O)c2c(NCc3cccc(OC)c3OC)sc3c2CCC3)cc1 -3.24%, CC(C)Oc1ccc(C(=O)N2CCCCC2CCN2CCCCC2)cc1 (stereo not given) -9.81%, CCOC(=O)c1sc(N2C(=O)c3oc4ccc(F)cc4c(=O)c3C2c2ccc(O)cc2)nc1C (stereo not given) -10.6%
